# Out of some 110,000 compounds screened, about 40 (0.04%) were called active. This list was built around the results that the source calls inconclusive (neither active nor inactive); the mix of calls is not that of the screen. Calls follow the shape of the dose curve; as a rule, active = well fitted curve in the direction sought with a large enough effect in the signal ratio (not every such curve was filed as active); inconclusive = small, poorly fitted or top-dose-only effect, or a change in a side signal; inactive = flat fitted curve, though single readings scatter; the % refers to the signal ratio. A potency beside an inconclusive call is a rough fit, not a confirmed value.
# Assay: IkB Signaling;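 as to IkBa stabilization activation: 0% = basal untreated cells and 100% = reference inhibitor full response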
# Details: ABC-DLBCL IkBa-CBG/CBR dual luciferase ratio (green luciferase fused to IkBa over red control in OCI-Ly3 lymphoma cells), 4 h; IkBa stabilization activation: at 57.1 µM (top of the series), scaled: untreated 0%, proteasome inhibitor 100% unless noted
# Procedure, shortened: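 Luminescence ratio of IκBα-fused green versus native red beetle luciferase in OCI-Ly3 cells, 4 h post-doxycycline with compound; red signal alone, scaled from basal (0%) to zero light (-100%), flagged nonspecific or cytotoxic effects.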
# Potency is read from the fitted curve at half-maximal effect.
Structure (SMILES),IkBa stabilization activation,Potency
Cc1ccc(Cl)cc1N1CCN(C(=O)CCSCc2ccccc2F)CC1,inconclusive: -0.574% [signal inhibitor],
COc1cc(C2Nc3ccccc3C(=O)N2c2ccccc2OC)ccc1O (stereo not drawn),,"inconclusive: 12.6 µM [signal inhibitor, partial curve]"
Cc1ccc(CN(C(=O)c2ccccc2Br)C2CCS(=O)(=O)C2)o1 (stereo not drawn),inconclusive: 0.53% [signal inhibitor],
O=C(Nc1ccc2oc(-c3ccc4ccccc4c3)nc2c1)c1cc(Br)ccc1Cl,inactive,
Cc1ccsc1C(=O)OCC(=O)NCC1CCCO1 (stereo not drawn),inactive,
Cc1oc(-c2ccc(Cl)cc2)nc1CN1CCCC(C(=O)N2CCN(C(=O)c3ccco3)CC2)C1 (stereo not drawn),inconclusive: 4.86% [signal inhibitor],
COCCn1c(SCCCc2ccccc2)nc2c1c(=O)[nH]c(=O)n2C,inconclusive: 1.14% [signal inhibitor],
Cn1c(-c2ccc(N)cc2)nc2ccccc21,inactive,
Cc1ccc(NC(=O)Nc2cc3c(cc2N2CCCCC2)n(C)c(=O)n3C)cc1Cl,inconclusive: 12.2% [signal inhibitor],
Cc1cc(Nc2nnnn2-c2ccccc2)n(-c2ccc(Cl)cc2)n1,inconclusive: 1.56% [signal inhibitor],
CCOc1ccccc1NC(=O)COc1cccc2c(=O)n(CCOC)ccc12,inconclusive: 9.01% [signal inhibitor],
O=C(NCCc1ccc(Cl)cc1)c1ccc2c(c1)N(Cc1ccccc1)CCS2,inconclusive: 0.402% [signal inhibitor],
O=C(Nc1ccc2oc(-c3cccnc3)nc2c1)c1ccc(-c2cccc(OC(F)(F)F)c2)o1,inconclusive: 16.7% [signal inhibitor],
CC(=O)c1nc2ccccc2n1S(=O)(=O)c1ccc(Cl)cc1,inactive,
COc1cccc(N2CCN(C(=O)c3ccc(CS(=O)c4cccc(Cl)c4)o3)CC2)c1 (stereo not drawn),inconclusive: 2.58% [signal inhibitor],
Cc1ccc(C)c(NC(=O)CCc2c(C)n(C)c3cc(-c4ccccc4C)nn3c2=O)c1,inactive,
O=C(Nc1ccc(N2CCCC2)c(Cl)c1)c1ccco1,inactive,
Cn1cnc2cc(NC(=O)c3ccco3)ccc21,inactive,
COc1ccccc1CNc1ncnc2ccc(-c3cccnc3)cc12,"inactive: -1.28% [at 11.4 µM, scaled: untreated 0%, proteasome inhibitor 100%]",
COc1cccc(CNS(=O)(=O)c2cc(Br)cc3c2N(C(C)=O)C(C)C3)c1 (stereo not drawn),inconclusive: -1.12% [signal inhibitor],
CCOC(=O)c1c(NC(=O)C(F)(OC)C(F)(F)F)sc(C(=O)N2CCCCC2)c1C (stereo not drawn),inconclusive: 4.33% [signal inhibitor],
O=C(NCc1ccco1)c1cc(-c2ccc3c(c2)OCO3)on1,inactive,
COC(=O)c1ccccc1NC(=O)c1nc(S(=O)(=O)Cc2ccccc2F)ncc1Cl,inactive,
COc1ccc(-c2nn3c(-c4cccc(C)c4)nnc3s2)cc1OC,inactive,
CC(=O)c1sc(NC(=O)C=C(C)C)nc1C,inactive,

Structure (SMILES),IkBa stabilization activation,Potency
COc1cccc(Cc2nc3ccccc3nc2SCC(=O)N2CCCCC2C)c1 (stereo not drawn),inconclusive: 1.77% [signal inhibitor],
CCn1c(=O)cc(SCC(=O)N2CCN(Cc3ccc4c(c3)OCO4)CC2)c2ccccc21,inconclusive: 2.07% [signal inhibitor],
CCOC(=O)c1c(-c2ccc(C)o2)csc1NC(=O)CN1CCN(CC)CC1,inactive,
COc1cccc2cc(C(=O)N3CCc4ccccc4C3)c(=O)oc12,inconclusive: 7.27% [signal inhibitor],
Brc1ccccc1-c1nnc(CSc2nnnn2-c2ccccc2)o1,inconclusive: 9.12% [signal inhibitor],
COc1cccc(C(=O)CN2CCN(S(=O)(=O)c3ccc(Cl)cc3)CC2)c1,inconclusive: 0.7% [signal inhibitor],
CC(=O)Nc1ccc(C(=O)Nc2ccc(S(=O)(=O)NCC3CCCO3)cc2)cc1 (stereo not drawn),inactive,
O=C(CN1C(=O)CSc2ccc(S(=O)(=O)N3CCCCC3)cc21)NCc1ccc(F)cc1Cl,inconclusive: 1.16% [signal inhibitor],
O=C(NCc1ccco1)c1ccc2c(c1)N(Cc1ccc(F)cc1)C(=O)c1ccccc1S2=O (stereo not drawn),inconclusive: 2.89% [signal inhibitor],
CN(C)c1nc(N)nc(CSc2nc3cc(Cl)ccc3o2)n1,inactive,
CCOc1ccc(NC(=O)Cn2c(CCC(=O)O)ccc2-c2ccc(Cl)cc2)cc1,inconclusive: 3.84% [signal inhibitor],
CCCN1C(C(=O)c2ccccc2)=C(OC(=O)c2ccc(F)cc2)c2ccccc2S1(=O)=O,inconclusive: -2.99% [signal inhibitor],
Cc1ccc(C)c(Cn2c3ccccc3c3cnn(CC(=O)N4CCCCC4)c(=O)c32)c1,inconclusive: 1.46% [signal inhibitor],
COC(=O)COc1ccc(S(=O)(=O)NCc2ccco2)cc1Cl,inactive,
COc1ccc(Cl)cc1NC(=O)c1cc(S(=O)(=O)N2CCc3ccccc32)cn1C,inconclusive: 0.0636% [signal inhibitor],
COc1cc2c(C(=O)N3CCN(c4cccc(C)c4)C(C)C3)cn(CC(C)C)c(=O)c2cc1OC (stereo not drawn),inconclusive: -1.27% [signal inhibitor],
OC[C@@H]1O[C@H](O)[C@@H](Cl)[C@H](O)[C@@H]1O,inactive,
CC1CN(C(=O)CCC(=O)NCc2cccc(Cl)c2)c2ccccc2S1 (stereo not drawn),inconclusive: -1.05% [signal inhibitor],
COc1ccccc1C(=O)N(Cc1nc(-c2cccc(C)c2)no1)C(C)C,inconclusive: -0.177% [signal inhibitor],
O=C(NCc1ccccc1)c1nc(S(=O)(=O)Cc2ccc(F)cc2)ncc1Cl,inconclusive: 1.06% [signal inhibitor],
Cc1ccc(/C=C/c2onc(C)c2S(=O)(=O)N2CCC(C(=O)N3CCN(c4cccc(C)c4)C(C)C3)CC2)cc1 (stereo not drawn),inactive,
Cc1cccn2c(=O)c3cc(C(=O)NCCCN4CCOCC4)n(C)c3nc12,inactive,
Cc1nn(C(C)C(=O)NC2CCC(C)CC2)c(=O)c2c1sc1ccccc12 (stereo not drawn),inconclusive: -1.42% [signal inhibitor],
O=S(=O)(NCCc1csc2nc(-c3ccccc3)nn12)c1cccs1,inconclusive: 5.17% [signal inhibitor],
COc1cc2c(cc1NC(=O)COC(=O)Cn1cnc3ccccc31)oc1ccccc12,inactive,

Structure (SMILES),IkBa stabilization activation,Potency
CC1(C)c2ccccc2N2CC(=O)NC21/C=C/c1ccco1 (stereo not drawn),inactive,
Cc1ccc(NC(=O)CN2C(=O)CCc3ccccc32)cc1C,inactive,
Cc1ccc(OCc2nc(-c3ccc(C(=O)NCCc4ccc(Cl)cc4)cc3)oc2C)cc1,inconclusive: 0.916% [signal inhibitor],
CCCCc1ccc(NC(=O)c2cc(-c3ccc(C)c(F)c3)on2)cc1,inconclusive: 13.6% [signal inhibitor],
Cn1c(=O)c2sccc2n2c(CCC(=O)N3CCN(c4ccc(F)cc4)CC3)nnc12,inactive,
COc1ccc(C2=C(Nc3ccc(Br)c(C)c3)c3ccccc3C2=O)cc1,inconclusive: 15.8% [signal inhibitor],
CC(C)Nc1ccc(-c2nc(-c3ccncc3)no2)cc1[N+](=O)[O-],inconclusive: 3.52% [signal inhibitor],
CCOC(=O)c1c(C)[nH]c(C)c1S(=O)(=O)N1CCCC(C(=O)N2CCN(c3ccccc3F)CC2)C1 (stereo not drawn),inactive,
CCCSc1oc(-c2ccco2)nc1S(=O)(=O)c1ccc(Br)cc1,inconclusive: -0.172% [signal inhibitor],
c1ccc(-c2cc(-c3cc(-c4ccccn4)[nH]n3)n[nH]2)nc1,"inactive: 3.44% [at 11.4 µM, scaled: untreated 0%, proteasome inhibitor 100%]",
Cc1ccc(S(=O)(=O)n2nc(-c3ccc(Cl)cc3)nc2NCc2ccccc2)cc1,inactive,
CN(C)CC/C=C1\c2ccccc2COc2ccccc21,inactive,
CCC(=O)/C=C/C1C(C)=CCCC1(C)C (stereo not drawn),inactive,
CC(=O)N1CCc2c(sc3c2c(=O)n(-c2ccc(F)cc2)c(=O)n3Cc2ccc(C#N)cc2)C1,inconclusive: 6.04% [signal inhibitor],
Cn1c(=O)oc2cc(S(=O)(=O)Nc3cccc4c3CCCC4)ccc21,,"inconclusive: 3.98 µM [signal inhibitor, full curve]"
CN1[C@@H]2CC[C@H]1CC(OC(=O)[C@@H](CO)c1ccccc1)C2 (stereo partly drawn),inactive,
O=C(Nc1ccc(Cl)cc1)Nc1ccccc1C(=O)NCc1ccco1,,"inconclusive: 15.8 µM [signal inhibitor, partial curve]"
CCCCN(CC)C(=O)CSc1nc2n[nH]c(C)c2c(=N)n1-c1cccc(C)c1,inconclusive: -2.21% [signal inhibitor],
COc1cccc(-c2cc(C(=O)Nn3cnnc3)c3ccccc3n2)c1,inactive,
O=C(COc1ccccc1Cl)Nc1nnc(S(=O)(=O)N2CCCC2)s1,inconclusive: 8.22% [signal inhibitor],
O=C(Nc1cccc(C(F)(F)F)c1)c1cc(-c2ccc(Cl)s2)nc2ccccc12,inactive,
O=C(Nc1nccs1)c1ccc(S(=O)(=O)NCc2cccs2)cc1,inconclusive: 0.158% [signal inhibitor],
CC[C@H](C(=O)[C@H](C)[C@H](O)[C@H](C)CCc1ccc(C)c(O)c1C(=O)O)[C@H]1O[C@](CC)([C@@H]2CC[C@@](O)(CC)[C@H](C)O2)C[C@H]1C,"inconclusive: -2.93% [signal inhibitor] [at 25.6 µM, scaled: untreated 0%, proteasome inhibitor 100%]",

# From PubChem BioAssay AID445 (National Center for Advancing Translational Sciences (NCATS), 2006)
